One block for each binder: values may come before it.
Key:
Assay in all cases: cell-based or functional assay
[1] = target: T1, IL-7 receptor (IL-7R alpha chain and common gamma chain) on human T cells (human, UniProt P16871 21-459; P31785 23-369)
T1 sequence (looked up) 1: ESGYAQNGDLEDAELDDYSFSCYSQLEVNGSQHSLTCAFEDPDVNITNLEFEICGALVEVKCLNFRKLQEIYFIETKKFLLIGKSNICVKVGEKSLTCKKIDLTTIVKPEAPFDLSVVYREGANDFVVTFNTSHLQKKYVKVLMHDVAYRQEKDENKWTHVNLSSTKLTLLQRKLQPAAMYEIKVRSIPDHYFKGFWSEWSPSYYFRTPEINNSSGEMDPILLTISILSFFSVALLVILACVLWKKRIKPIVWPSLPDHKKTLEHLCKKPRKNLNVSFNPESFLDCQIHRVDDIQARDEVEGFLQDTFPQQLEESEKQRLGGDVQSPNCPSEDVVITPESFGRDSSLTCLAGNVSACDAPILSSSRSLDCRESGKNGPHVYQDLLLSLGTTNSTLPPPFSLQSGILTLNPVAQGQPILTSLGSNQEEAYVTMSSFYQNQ
T1 sequence (looked up) 2: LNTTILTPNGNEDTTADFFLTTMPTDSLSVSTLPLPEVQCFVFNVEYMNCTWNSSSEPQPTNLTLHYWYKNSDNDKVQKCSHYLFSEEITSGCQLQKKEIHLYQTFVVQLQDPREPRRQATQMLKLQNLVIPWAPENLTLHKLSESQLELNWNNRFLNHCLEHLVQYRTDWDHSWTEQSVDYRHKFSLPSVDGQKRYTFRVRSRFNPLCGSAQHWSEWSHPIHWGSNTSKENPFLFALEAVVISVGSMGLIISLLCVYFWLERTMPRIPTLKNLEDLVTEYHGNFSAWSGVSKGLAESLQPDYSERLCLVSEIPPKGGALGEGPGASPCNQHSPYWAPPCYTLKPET

[2] = target: human PD-1 on activated CD4 T cells (human, UniProt Q15116 25-288)
[3] = target: T1, IL-7 receptor (IL-7R alpha chain and …); remark: listed apart in the source

- Potency reduction to PD1-IL7wt: EC50 (PD1+)/EC50 (PD1-IL7wt) [1]: 12.7 fold
- STAT-5P AUC, PD1+ CD4 T cells [1]: 73
- STAT-5P AUC, PD1-blocked CD4 T cells [1]: 38.9
- Cis-delivery: fold increase in EC50, EC50 [with PD1bl]/EC50 [no PD1bl] [2]: 6.7 fold
- Delta AUC (PD1+ vs PD1bl.) [2]: 34
B1: P1AH6009 (new PD1-IL7v, fully glycosylated; IL7 L77K, Q136; (G2SG2)3 linker) (other)
light: DIVMTQSPDSLAVSLGERATINCKASESVDTSDNSFIHWYQQKPGQSPKLLIYRSSTLESGVPDRFSGSGSGTDFTLTISSLQAEDVAVYYCQQNYDVPWTFGQGTKVEIKRTVAAPSVFIFPPSDEQLKSGTASVVCLLNNFYPREAKVQWKVDNALQSGNSQESVTEQDSKDSTYSLSSTLTLSKADYEKHKVYACEVTHQGLSSPVTKSFNRGEC
heavy 1: EVQLLESGGGLVQPGGSLRLSCAASGFSFSSYTMSWVRQAPGKGLEWVATISGGGRDIYYPDSVKGRFTISRDNSKNTLYLQMNSLRAEDTAVYYCVLLTGRVYFALDSWGQGTLVTVSSASTKGPSVFPLAPSSKSTSGGTAALGCLVKDYFPEPVTVSWNSGALTSGVHTFPAVLQSSGLYSLSSVVTVPSSSLGTQTYICNVNHKPSNTKVDKKVEPKSCDKTHTCPPCPAPEAAGGPSVFLFPPKPKDTLMISRTPEVTCVVVDVSHEDPEVKFNWYVDGVEVHNAKTKPREEQYNSTYRVVSVLTVLHQDWLNGKEYKCKVSNKALGAPIEKTISKAKGQPREPQVCTLPPSRDELTKNQVSLSCAVKGFYPSDIAVEWESNGQPENNYKTTPPVLDSDGSFFLVSKLTVDKSRWQQGNVFSCSVMHEALHNHYTQKSLSLSPG
heavy 2: EVQLLESGGGLVQPGGSLRLSCAASGFSFSSYTMSWVRQAPGKGLEWVATISGGGRDIYYPDSVKGRFTISRDNSKNTLYLQMNSLRAEDTAVYYCVLLTGRVYFALDSWGQGTLVTVSSASTKGPSVFPLAPSSKSTSGGTAALGCLVKDYFPEPVTVSWNSGALTSGVHTFPAVLQSSGLYSLSSVVTVPSSSLGTQTYICNVNHKPSNTKVDKKV[sequence of human IgG1 Fc with changes omitted]GGSGGGGSGGGGSGGDCDIEGKDGKQYESVLMVSIDQLLDSMKEIGSNCLNNEFNFFKRHICDANKEGMFLFRAARKLRQFLKMNSTGDFDKHLLKVSEGTTILLNCTGQVKGRKPAALGEAQPTKSLEENKSLKEQKKLNDLCFLKRLLKEIKTCWNKILMGTKEH

- Potency reduction to PD1-IL7wt: EC50 (PD1+)/EC50 (PD1-IL7wt) [1]: 92.7 fold
- STAT-5P AUC, PD1+ CD4 T cells [1]: 7.1
- STAT-5P AUC, PD1-blocked CD4 T cells [1]: 7.8
- Delta AUC (PD1+ vs PD1bl.) [2]: -0.7
B2: P1AH6010 (new PD1-IL7v, fully glycosylated; IL7 L77K, G85K; (G2SG2)3 linker) (other)
light: B1 light
heavy 1: B1 heavy 1
heavy 2: EVQLLESGGGLVQPGGSLRLSCAASGFSFSSYTMSWVRQAPGKGLEWVATISGGGRDIYYPDSVKGRFTISRDNSKNTLYLQMNSLRAEDTAVYYCVLLTGRVYFALDSWGQGTLVTVSSASTKGPSVFPLAPSSKSTSGGTAALGCLVKDYFPEPVTVSWNSGALTSGVHTFPAVLQSSGLYSLSSVVTVPSSSLGTQTYICNVNHKPSNTKVDKKV[sequence of human IgG1 Fc with changes omitted]GGSGGGGSGGGGSGGDCDIEGKDGKQYESVLMVSIDQLLDSMKEIGSNCLNNEFNFFKRHICDANKEGMFLFRAARKLRQFLKMNSTGDFDKHLLKVSEKTTILLNCTGQVKGRKPAALGEAQPTKSLEENKSLKEQKKLNDLCFLKRLLQEIKTCWNKILMGTKEH

- Percentage of rescued Granzyme B production by Tconv (Treg suppression assay, 6 nM) [3]: 44.6%
- Percentage of suppressed Granzyme B production by Tconv (Treg suppression assay, 6 nM) [3]: 55.4%
- Potency reduction to PD1-IL7wt: EC50 (PD1+)/EC50 (PD1-IL7wt) [1]: 27.4 fold
- STAT-5P AUC, PD1+ CD4 T cells [1]: 56.1
- STAT-5P AUC, PD1-blocked CD4 T cells [1]: 21.3
- Cis-delivery: fold increase in EC50, EC50 [with PD1bl]/EC50 [no PD1bl] [2]: 23.7 fold
- Delta AUC (PD1+ vs PD1bl.) [2]: 34.9
B3: P1AH6007 (new PD1-IL7v, fully glycosylated; IL7 V15K, Q136K; (G2SG2)3 linker) (other)
light: B1 light
heavy 1: B1 heavy 1
heavy 2: EVQLLESGGGLVQPGGSLRLSCAASGFSFSSYTMSWVRQAPGKGLEWVATISGGGRDIYYPDSVKGRFTISRDNSKNTLYLQMNSLRAEDTAVYYCVLLTGRVYFALDSWGQGTLVTVSSASTKGPSVFPLAPSSKSTSGGTAALGCLVKDYFPEPVTVSWNSGALTSGVHTFPAVLQSSGLYSLSSVVTVPSSSLGTQTYICNVNHKPSNTKVDKKV[sequence of human IgG1 Fc with changes omitted]GGSGGGGSGGGGSGGDCDIEGKDGKQYESKLMVSIDQLLDSMKEIGSNCLNNEFNFFKRHICDANKEGMFLFRAARKLRQFLKMNSTGDFDLHLLKVSEGTTILLNCTGQVKGRKPAALGEAQPTKSLEENKSLKEQKKLNDLCFLKRLLKEIKTCWNKILMGTKEH

- Potency reduction to PD1-IL7wt: EC50 (PD1+)/EC50 (PD1-IL7wt) [1]: 6.5 fold
- STAT-5P AUC, PD1+ CD4 T cells [1]: 108
- STAT-5P AUC, PD1-blocked CD4 T cells [1]: 67.4
- Cis-delivery: fold increase in EC50, EC50 [with PD1bl]/EC50 [no PD1bl] [2]: 5.2 fold
- Delta AUC (PD1+ vs PD1bl.) [2]: 40.4
B4: P1AH6006 (new PD1-IL7v, fully glycosylated; IL7 K81A, Q136K; (G2SG2)3 linker) (other)
light: B1 light
heavy 1: B1 heavy 1
heavy 2: EVQLLESGGGLVQPGGSLRLSCAASGFSFSSYTMSWVRQAPGKGLEWVATISGGGRDIYYPDSVKGRFTISRDNSKNTLYLQMNSLRAEDTAVYYCVLLTGRVYFALDSWGQGTLVTVSSASTKGPSVFPLAPSSKSTSGGTAALGCLVKDYFPEPVTVSWNSGALTSGVHTFPAVLQSSGLYSLSSVVTVPSSSLGTQTYICNVNHKPSNTKVDKKV[sequence of human IgG1 Fc with changes omitted]GGSGGGGSGGGGSGGDCDIEGKDGKQYESVLMVSIDQLLDSMKEIGSNCLNNEFNFFKRHICDANKEGMFLFRAARKLRQFLKMNSTGDFDLHLLAVSEGTTILLNCTGQVKGRKPAALGEAQPTKSLEENKSLKEQKKLNDLCFLKRLLKEIKTCWNKILMGTKEH

From patent publication US20250361279A1 (Hoffmann-La Roche, published 2025)
